Assay results published in the supplement of paper PMC3334620.
The full ranking holds about 33,000 sequences; the median of “E-score (-0.5 to 0.5)” is about -0.056, and the highest 2% start at about 0.38. The list shows a part of the results.

What follows are sequences tested against Stb4 (UniProt P50104) (assay: PBM E-score (8-mer binding enrichment) (E-score (-0.5 to 0.5)); higher = stronger / more preferred TF binding; most listed sequences are background and not binding sites). Details: protein concentration: 200 nM; construct: GST-DNA-binding domain.
Summary of the method: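 Bound GST-tagged yeast transcription factors, applied at about 100-200 nM to double-stranded universal all-10-mer Agilent arrays, were detected with fluorescent anti-GST. Scans were normalised with masliner. A modified Wilcoxon-Mann-Whitney statistic, the E-score, was assigned to each ungapped eight-base word pooled with its reverse complement by the Universal PBM Analysis Suite.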

Sequence | PBM E-score
GTAACAGA | 0.075
CGTTACAA | -0.151
GGAACGCA | 0.272
ATAACGAG | -0.0944
GGACTCAA | -0.12
CAAGCCCC | 0.0224
GAGCGGCA | 0.164
ACTAGCTG | -0.203
AACCCAAA | -0.14
CAGTGACA | -0.238
ATATAAAT | 0.0789
AGTTAGCG | -0.114
CCCGCGAC | 0.176
TCGCTTAA | -0.168
AAAGTGTA | -0.154
TTGAACAA | -0.0836
AGACCGTA | -0.12
CCCGGCAG | 0.261
CAAGGATC | 0.00882
ATCCGTGA | 0.331
ATCTAAGG | -0.219
ACCTAACG | -0.194
GACCTCGA | -0.0253
ACTAGATC | -0.0752
ATGCGTGG | -0.199

Sequence | PBM E-score
ATTTATCA | 0.0131
AGGCCCGA | 0.233
CTCGTAAA | 0.0334
CATGTTTC | 0.101
TGATTGAA | -0.194
ACGAAAGA | -0.119
CTCACTTA | -0.14
ATGACGCG | -0.0456
CGCCCTAG | -0.0478
CACGTGGA | -0.172
AACTGTCC | 0.0472
CGATTATA | 0.0999
AGCGGTGG | -0.0316
CAAGCTCA | -0.241
AAGTCCTC | -0.0489
AATCCTGT | -0.0567
GTGTTCAA | -0.0835
GAGCCAGC | -0.0917
ACCGAGGT | 0.392
CGAATAAC | 0.141
CCCCCGAC | 0.175
CCTCACCG | -0.0593
CTCTCTTA | -0.243
CGAAGTTA | 0.112
AAAGCGGC | 0.196

Sequence | PBM E-score
AGACGTGG | -0.0737
ACTTTAAA | 0.194
AGTGCTCA | -0.348
GGGGACCA | -0.024
AGTGTTCC | 0.23
CCATGCAC | -0.202
CACCGAGC | 0.295
GGTATACC | 0.261
ACTTTTCC | 0.246
TGTTGCAA | -0.00184
ATAGAGAG | -0.17
TATGAGCA | -0.223
GAATTCGA | 0.0324
CTTATGAC | 0.0527
AGCATGTA | -0.274
GCTGAGAA | -0.3
CGTTATTC | -0.0121
TATGAGAA | -0.23
AGGAACAT | -0.223
AGAAACTA | -0.0858
CTCAGCTA | -0.197
CAATTCAC | -0.0549
TGAGCACA | -0.193
ACGTACCT | -0.133
CCTCACGC | -0.0898

Sequence | PBM E-score
AATTCCGT | 0.31
CCCCGACA | 0.16
ACGCATGA | 0.00876
CGGTGCAA | 0.0798
CTCACCAG | -0.217
ACCAAGTC | -0.0444
TGCCGCAA | 0.135
GCGACGCA | -0.235
TGTACTAA | -0.148
ACCATGGA | -0.0808
CGTGTCTA | 0.015
GCGTGGAC | -0.107
ACGCGAAC | -0.187
GTGGTCAA | -0.189
GAAATACA | -0.149
CGAGATAC | 0.163
CTCTGGGA | -0.232
AGTGGGCA | -0.0117
AGTCCACC | -0.0819
AAGAAGAG | -0.064
GATCAATA | -0.0388
CAAGTAGC | -0.264
ATAATTCG | 0.0689
CGTCCACG | -0.0192
AGCTTTTA | -0.0101

Sequence | PBM E-score
CGGGCTAC | 0.131
CTAACTGA | -0.0828
CGTGACTC | -0.101
ATCAAAAA | 0.00924
GATATCCA | -0.0589
CGTCACAC | -0.0041
CCCTCCAC | -0.191
CAGCAGGG | -0.243
ACAACTGG | -0.0467
TTCTAGAA | -0.0493
ACGGGTCC | 0.214
ATTACCAG | -0.105
ACATCTCA | -0.113
ATAAGACG | -0.112
ACCGCGCG | 0.136
TATCCTGA | -0.0875
GCACAGGC | -0.108
CAGACGGC | -0.0269
AGCAGGCG | -0.216
CGGGCCGC | 0.309
GACGTTGA | -0.00692
AACATTAG | -0.229
TACAAAAA | -0.127
AATATGTG | 0.0136
CGTCAAAG | -0.163

Sequence | PBM E-score
CCTTATAA | 0.104
GTGTGGGA | 0.0105
CGAAAACG | 0.0816
CATTCATC | -0.144
TCAGCGGA | 0.192
CATTTACC | 0.00883
AGCATGAG | -0.175
CGTTTCAG | 0.0363
CACAGTCA | -0.221
ACGTACCC | 0.108
AGCATACC | -0.0852
CCAAAAGC | -0.105
CAGGCATC | -0.227
AGGATTAT | -0.0938
ATCGAACC | 0.089
ACAACTCG | 0.0391
ACAGTACC | -0.0799
CGGATGGA | 0.364
GCCTTATA | 0.0142
AATGATCT | -0.12
AGACGACC | -0.235
AGCGACCT | -0.144
GCTAGTCC | -0.0339
AATTCTCA | -0.149
AAAGAAAG | -0.00387

Sequence | PBM E-score
AATAGCAT | -0.135
AGCTCTGA | -0.288
AACCGCGC | 0.051
GAAGTTCA | 0.0304
AACCAGGT | -0.0413
ACTTTCGC | -0.239
AGGGCCGC | -0.21
AGGTGGAG | -0.224
GAAACAAA | -0.112
CTAGCTAG | -0.333
CGATGCGA | -0.0109
GCGCCAGC | -0.0419
ATCCCGGA | 0.344
CAACCAGC | -0.229
ACAGGGGG | -0.302
AAATGGAT | -0.158
CGAGTATC | 0.214
CCGGTTGA | 0.264
TGCAAAAA | -0.148
GGGGATTA | -0.0027
ATCGTGGC | -0.273
ATTTCTCG | 0.232
